Assay results taken from the supplement of paper PMC3334620.
Over roughly 33,000 sequences, “E-score (-0.5 to 0.5)” has its median near -0.01; the highest 2% begin near 0.26. The list shows a part of the results.

molecular target: Ste12 (UniProt P13574); test: PBM E-score (8-mer binding enrichment) (E-score (-0.5 to 0.5)); higher = stronger / more preferred TF binding; most listed sequences are background and not binding sites; settings: protein concentration: 200 nM; construct: GST-DNA-binding domain
Outline: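 Bound GST-tagged yeast transcription factors, applied at about 100-200 nM to double-stranded universal all-10-mer Agilent arrays, were detected with fluorescent anti-GST. Scans were normalised with masliner. A modified Wilcoxon-Mann-Whitney statistic, the E-score, was assigned to each ungapped eight-base word pooled with its reverse complement by the Universal PBM Analysis Suite.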

Sequence	PBM E-score
ACAGCGTC	-0.124
AGGAGCCT	-0.125
CACTGGAG	-0.249
AATGGCCT	-0.00519
GGATGGAA	-0.0741
GGAATAAA	0.0634
CGGACCTA	0.0577
GGGTCCAA	-0.0826
ATCATAAA	0.0612
TAAGTACA	0.0047
CCAAGTTA	-0.0382
TTCCGAAA	0.264
ATTTAATC	0.209
CAGGAATA	0.00205
GGTCCGTA	-0.151
ACACTCCC	-0.0365
CATTTTCA	0.273
AACTGGGT	-0.118
ACGATTTG	0.107
CTATTAGC	0.0448
AAATGCCC	-0.188
ACCTTCCG	0.0145
CGTCTGAA	0.0774
CTGTACCC	-0.0994
GGTAAAGA	0.15

Sequence	PBM E-score
AATGAGTA	0.15
GCGGTGCA	-0.13
ATAGCCAA	0.0295
ATTAAATG	0.19
AATTTTAA	0.318
GGTTCGCA	-0.0263
CTGGCTTA	-0.0812
ACCGAGCG	0.0148
CTAAAACC	0.192
CGGCCTAG	-0.0703
ACGTACGT	-0.134
ACTACTCA	-0.0467
AAAGGCAC	0.0435
CGCGTCGA	0.0888
ACAGCACG	-0.136
AACACCAA	0.0389
AGTACAAG	-0.00883
ATACAACG	0.0195
ATCATTTC	0.171
CAAGCCAA	-0.0322
GAGTAGCA	-0.128
CTTAATTA	0.208
CAGACTAC	-0.246
CAACCTTA	-0.0367
ATAGACTC	-0.133

Sequence	PBM E-score
CGTTCCAC	-0.0852
AGGCCTGG	-0.188
ACACAGCG	0.121
TAGTCCAA	-0.142
TCCGTGCA	0.0424
GTGATGGA	-0.0522
AGTACTGG	-0.0665
ACATCGTA	-0.0243
ATTAAAGA	0.0703
TCGTTCCA	-0.0164
ATGTTTGC	0.0377
ACATACGA	0.0743
GCAGTATA	0.0915
GAGTACGA	-0.112
GCCATGGA	-0.091
TCGGCTCA	-0.202
ACCTGGCT	-0.125
AACATGAC	0.103
CGTCGCGA	0.125
GTCGCTTA	-0.193
GTGCCCTA	-0.173
AATCCCAG	-0.0638
CTAGCGAC	-0.0932
TATCGGAA	0.171
AGTCCATC	-0.306

Sequence	PBM E-score
GATGCACC	-0.207
AGGACTAG	-0.143
CTAACCAC	0.0504
ACTGCTTC	-0.0707
GATTGCCC	-0.235
CGTTTGTC	0.00601
GTGGACCA	-0.146
AATGTTCA	0.0604
CAAGAAGG	0.168
CGTCAAGC	-0.157
GTCCGTGA	-0.207
CGGGGGCC	-0.188
CACTCTGC	-0.0761
AGACTGAT	0.0502
GGTCGGTA	0.0205
AGGGAAGC	-0.0834
TCGAGAAA	0.0795
AGTCAGGA	-0.17
CTGCCAAG	-0.247
AGAAAAAG	0.0364
GAAGGCCC	-0.226
CCTTCCCG	-0.123
GCGGGGAA	0.261
CGGGCCGA	-0.106
GGTTGTAA	0.0372

Sequence	PBM E-score
CCGAATGC	-0.0533
TCCTAGCA	-0.0629
TTCAAGAA	0.247
CCGTATAG	-0.0653
GTCTTTAA	-0.101
CCAGTACG	-0.0825
GCAGAAGA	0.0527
AGACATAA	0.101
CTACGTGC	-0.0642
ATTTTATG	0.248
AGTTAAGG	-0.0479
ATCGCGGG	0.0283
AGTCTGAG	-0.0101
CTATTTAA	0.194
ACTGCTCG	0.0382
TAGGAATA	0.00692
ACATAGCA	-0.115
CCTTCTGC	-0.143
AATTTGTA	0.217
TAGCTCGA	0.101
CTGATGGC	0.0625
ATTGTTAG	0.0697
GTATTCTA	0.149
AATTCGCG	0.0619
AGGATAAA	0.138

Sequence	PBM E-score
ACCAACGC	-0.0766
AGGAAACA	0.19
ACAACATA	0.0632
AATCAGCA	-0.0253
GACGACCA	-0.0719
GGCATCAA	-0.137
CAAATAGG	0.187
CTGCTCAC	-0.157
GAACTGTA	0.118
CTGTCAAC	-0.085
ACACGACC	-0.0235
GTAGTGCA	-0.0696
AGACTTGG	-0.11
CCATCACG	-0.0498
GCAGAACC	-0.151
CAAATTCG	0.124
TCAAAAGA	0.202
GCCGGTAA	-0.00694
CCGGCCTC	-0.00735
CATCTCGA	0.00363
AACTAACT	-0.0673
ATAGTTCC	0.154
ACCTGCGA	-0.0253
GTCTTACA	0.00293
ACAGCTTC	-0.063

Sequence	PBM E-score
GTGGCTGA	0.0345
GTAGGGAA	-0.0505
GATTCACA	0.0531
AAAACCTG	0.0562
GTCTCAAA	0.218
CAAAACCA	0.194
GAATCTTA	0.0953
ATAAGTGC	-0.189
CTCAAAAC	0.223
CCCTCGTC	0.0917
CGTCCTGA	-0.153
CAAACCTC	-0.105
CGGGATGA	0.00463
CAGTTTAG	0.0854
CTATTATC	0.126
AACGCTCA	0.00242
CCACTTAG	-0.179
CCTGCCCC	-0.0671
GACTCAAA	-0.0364
CTCTAAGA	0.0762
GATGAGTA	0.0183
CAGCGTCC	-0.0696
